Assay results reported in article PMC10726135.
This is one part of the list. At the low end of the ranking the order means little. Measured with an extract: partners may take part in the binding.

target: T1, HNF4alpha2 (COS-7 nuclear extract) (UniProt P41235); assay: protein-binding microarray; conditions: COS-7 nuclear extract on double-stranded Agilent 4x180k PBM; binding buffer, salt, pH and temperature not given; high values mean tight binding; double strand, one strand shown; sequences stand for … in …GCCTAGGGAGATTAGAGTATCGGTCGA
T1 sequence: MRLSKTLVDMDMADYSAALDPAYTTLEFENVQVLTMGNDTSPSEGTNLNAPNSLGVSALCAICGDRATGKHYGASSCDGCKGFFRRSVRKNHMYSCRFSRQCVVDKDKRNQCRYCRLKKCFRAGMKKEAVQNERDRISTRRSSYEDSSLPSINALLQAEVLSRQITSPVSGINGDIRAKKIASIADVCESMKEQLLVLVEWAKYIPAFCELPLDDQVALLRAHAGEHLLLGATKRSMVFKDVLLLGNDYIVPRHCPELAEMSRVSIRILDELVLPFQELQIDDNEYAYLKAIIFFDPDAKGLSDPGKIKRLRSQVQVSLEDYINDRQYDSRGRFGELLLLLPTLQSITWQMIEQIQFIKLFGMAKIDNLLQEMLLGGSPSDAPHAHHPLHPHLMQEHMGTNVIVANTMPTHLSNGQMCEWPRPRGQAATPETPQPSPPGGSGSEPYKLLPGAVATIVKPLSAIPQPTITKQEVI

Sequence | binding signal (log2 normalized intensity)
CAAATATTTGCCTAGGATTCTGGGAGGGGA | -1.02
TCAGTGAGCCTTGACCTTCATGCTACTGTG | 1.62
CCAAAGAAGCCACAGAAGTCTTTCCCTGCC | -0.999
AACATGTAGGTCAAAGAATGCCTGGGTCAA | 1.92
TTAGGTGCTGAGCAACTATAAAACAGGAAA | -0.703
AAGATTCAGAACCCATTAATTTAGCACTTA | -1.01
AGAGGTATCATGAGGTATATTCAACCCCCA | 4.13
CATGTTTGGGTCACAATCACAAATGCCTTC | 0.579
GGGCTGGGGAAACAAAATAATAGTTGACCT | 4.21
TCCCATGGCTAATCTGTGACTGAGCAGAGA | -1
AGCTGTCTGGTTTGACCTTAAGTCAGAAGA | 3.26
TTCCTCAGATGGAATGTGTGCCCGTCACCT | 1.74
TTTAATGATGAGTCCAAGTTCCACATCAAG | 0.978
CGTCCGCGGAAGCACACACGAGCTGTGCGC | -1.05
CCTATTCTGAAGATTGCTAGCTGAGAGACT | -1.08
TTCAGGGAGACTTCCAGGGAATAAAGAACT | -1.1
GGGTCAAGAAGACCTGGGCTCAAATCTGGA | -0.949
AATCCTCCACTCTCCAAAATAGGGTAGTTT | 1.02
TATTAGGAAATTGTCAGTGCCCTATACAGA | 0.206
AAGGGTCCAGATTAGAGCACAATGTGGGGA | -0.716
CATGAATCCATCCCACCTCACTTATCACAT | 1.02
GGATCCGCAGCCAGGGCTGTTTTCTCCAGT | -1.14
GAGCAAAGCTGATAAAGAGGACAGAGCCTG | -0.895
TTGCCATGTGACAATTCTTCCTTCATCTGG | 1.05
TAGCATAATCAAAGAGAAAAACATTGCATA | -0.835

Sequence | binding signal (log2 normalized intensity)
AGAATCTAATCAGGCCTCCCTCCCTCCCCC | 5.6
GGCTTAAACCTTTAATGATGAGTCCAAGTT | 2.35
GCCCAGAGGAAGGAATGCACATGCCTTAAG | -1.2
GAATTGTCTAACCGCAGCAAGACACTTCCA | -1.21
AATGGATGGCAAATAAAGGAACTCTTATCT | -0.765
AGTGCTATCCCTGGAGCCTTAGAAGATGAC | -1.08
CACAAGCTGGGTCAACATCAGCCCTCCTAG | 1.49
GCATCACTCTTGCCACAGAACAGGCTGTTT | -0.686
TCATCTTCAAAGCCAGCAATGGCAGGTCCA | 1.41
ATAGTCATTCTTCTACAGTGTTTACCGGAT | 2.14
TCCTCACCCCACTTTGGTTCACCGCTCACT | 1.21
GTGGCTATGGCTGGGATATCAGGTATTGCC | 0.099
TCTGGTCAGACTGAGAGAGCAGGGCCCGAG | -1.11
GGAAGGTTTCACCCTGAGGAATCCCATTCC | -1.07
CCTGTGTGTACTGGGCAGATAACAGCGAAC | 0.177
CCAGGCGACTGGGCCAGGAGCAGGAGCAGA | -1.06
TGCCAACAGGTGCTCTTTATCAGCACCAAG | -1.15
CTCTGGATGCAGGTCGCCGGGAAAACCCGG | -1.11
CAAGAGGTTTTAGGCTATCAGACAGCCACA | -0.99
CTATAGAGGCAGTGAGCCTTGCCGTGCTGC | -1.09
TGACTGAGCTCGCGCCGGGCACTGATAACG | -1.01
TACATAACAATGCAAGATAAAAGTGAGCAA | -1.12
CCCTGGGGGTGGGGGTGTGGGTAGCAGCTG | -1.01
TCTTGTGGCCATTTGGGAAACCGCGATTAA | -0.6
CTCCCACATCTTTAATTATCATCTCTGTGT | 1.77

Sequence | binding signal (log2 normalized intensity)
TGGCTTGGAACTGACATGCTGTCACTTCTG | -1.04
CAGCTTTGAAGTGCTTCCTGTGTATTTCTT | 1.35
TGGGACTGGCAAAGCCATGAAGCAATTCTG | -1.12
CTTAACTTGGTTTCCCTGGAAACAGATAAA | -0.758
ACACTGCCATTTAAAAGTTTCCCTTGATCA | 0.876
GGCGGCTAGTGTACAGGTGACCTTTGGAAT | 8.95
ACACAGACACACATGAGCTAGTGCTAAAGG | -0.851
CTGCCATAAACTTCTCCCCCACATGGAAAC | 3.9
AGCTTGCTCTCACCAGCTTCTTCTCTTTGA | -1.07
CCTCCTGCTTAGCGGCCTTCCCCTTTTTCT | 1.96
AAAAGTCCAGCTGCCAGGGAGACAAAGTGT | -0.469
TGGGGATAAACACCCCCATCTATGCACTCT | 0.81
AATAAACTGAGGGGTGGGGACCAGTGGGGG | -1.04
AGAAAGACATGTTTCTAACTGCCCGCATTC | 0.246
GGGCAAAGGTCAGGATCTCAGCCGCGCGGC | 4.1
GCATGCCTCCCAGAGCATTGTTTATTGTTG | 1.27
GGCATTGTGTTACGTCTGGTTTCTTATCTT | 1.34
CAGTTAACGGGGACGCTTTAGAGAAACGCA | -0.92
CGGCAGAACTGGTGACCGGACACAAAAGCT | -1.21
AGGTAACGTAAACAAGTAAGGAAGACAAGA | -1.1
GCGACCCAGGCAGCCCCTTTGCTCCACACA | -0.966
CCTCCCAGCCTGGAGGAGGGCGAGGCCGAG | -1.09
ACCTGCTGGAATGTTTCAAGTGGCCTGATT | 1.29
TGGACAGCAGACAACTTTTCCTCTAACCAC | -1.19
TACCTGTACGTTACTCTGTACCTCGTGGGT | 1.53

Sequence | binding signal (log2 normalized intensity)
CTACATTCTAGATGACCCCTCTCTACTGGT | 3.61
GCTCCATACTCCTTATCTTGGCTGTAAGAT | 1.39
CTGGACCTCATCTTCCTCCCCAATATGGTC | 2.37
GTAGGGCCCCCAGCCAGGCCCCAGGCCAAC | 3.64
CTCCACTTGGGTATCAGATAGTCCAATGTC | 2.04
ATTCCAGCTATTCTGCCTTATCAGCGGCCC | -0.984
GACACCAAAGGTCACGTTCCAGCTGCTTCA | 2.08
GATTAGAGAGCAGGTGATAAGGAACTGTTA | -0.819
TCTTCTTCACCGGAGATTTACATTCCAGAG | 0.554
CACAGAAATCCAAAGGTCAACAGCCAGCCT | 3.53
ACCTCTGCTCCCAAAGCAAACCTCCCCAGC | 3.75
CTTATTATCTTCAATGATAAGGAATGAGGA | 0.423
ACAGGTTTCTGTCCTGGTCACAGTAACAGG | -0.431
ATAGATAAGAAAGGCTACAAAGGTGACTTG | 0.608
CCGGCAAGTCTGAAATCTACAGGACAGCCA | -1.12
AGGTGGTTCTTTCTGAGTTGCATGAATTTA | 1.33
TGCAGTTTCCCTATTCTCAGTGATATAAAA | 0.994
AAGAGGCTCTAGATCTCAAAGTCCAAATAG | 4.24
CATATCACAGGAGAAAACAGCACAAGCAAT | -1.04
TGTTCTCTTGGCCAACAACTAGGGCAAAGG | 2.57
AACTGTGGACTCGCTGCCTTTTATCCCTTT | 1.23
TATACAAGAAAGAAAGAATGTTTGCTTCTG | -0.716
CAGCTGTTATCTCTTTTGTGATAGAATGAA | 1.92
TGACCTTTGCATTCTTACCCAAGCCCCAAA | 3.73
CCCCTTGATGCATCAGACCCCTGAGTTTCG | 3.05

Sequence | binding signal (log2 normalized intensity)
TGACAGTCCAAGGACTCAATGATACCATCA | -1.16
GACTTTGAACTTCATGTGTGGTGCAGATTC | 1.97
TCATTCATCCAAGGACTTTGTAATCATATT | 2.24
AAGGCCGGAGGGCGGGGCGGGGCAGCAGGG | -1.13
ACAAATGAGGGGACAAAGTTCGTGGAAAGT | 2.91
GTTCACCTTTCCCTTCTTCTCCTCCCAACA | 2.91
TGGGAAGCTGGCACAGCAGATGCTGGGCAA | -1.18
AAGAACATTCCAGCTTTGAAGTGCTTCCTG | 0.00809
AGGAATGTGAAATGAATTTACAAACAAATG | -0.996
ATACAACTAGGCTACATGATACAGCCTTTT | -1.08
TCTGGGTGGGGGTGGAGGCAGCAGCTCCAA | -1.17
GAGGAGCGCATCGGGCGCCAGCGCCCCCGT | 0.779
GGGATAGGCAGGAGTTAACTAACAAAAGCA | -1.08
GTGGCTCACAAATGGAGTTTGGTTTAAAGT | 1.62
TTTGGCCTGCTGAGCCCAATCTAGCAAAAA | -1.08
CTGTGAAAGAAAAGTACTTTAGTGTATTGT | 1.37
CTCTCTTAACAGTCTGTTATCCCTAGGAAG | 0.844
GGATAGCGTCATCAGTCCAGGAGGGTCACA | 1.32
TGTCATACTGGTTGAATGGACGGACAGGTA | 1.66
CCTCGCCTATGGTATGTATGGAATGTCACT | 1.63
TAATTTTGCACAGCCAGCCTGAGGCAGTTG | -1.14
ACCCAAATATGGTCCCTGACCTTAAGGAGT | 2.15
AGTGTGCAAATGTGTCTTTTTTAGTCAGCA | 1.32
ATTGCAAGGATTCCAAATTTAGTGAGTGGT | 1.21
TTATGTTCACCTCAGCACTGAGATAAAAAT | 0.185

Sequence | binding signal (log2 normalized intensity)
TGATGAGTCCAAGTTCCACATCAAGCACAT | 0.00918
CATCTGCTCACATACCACTGACTAAAGCAA | -1.16
ACTTATCAGGGTTATTTGCTAAAACTGGGC | 0.915
TTTTCGAATGGACAGGATGTTCTACACTGC | -0.942
GAGCTACCGCCTGAACCTTGGATCTCCTGC | 2.1
AGCAAAGGTTGGCTAAAGATAACCTAGAAA | -1.13
TGACTTGGGTGCACCAATGATCAAAGAGAC | 0.0185
CCCCGTTCCCGGCAGCCCGCGCGTGGCCCA | 2.39
GTTTTGAAAGACCTTTTCCCTCCCTCCCAG | 3.65
CCAGCTCCTCTTCACACCATGCTCTAGTCT | -0.56
GCCAGATGGCCACCCTTCAGCAAATAGTGG | -1.17
AGGTAGAGTCTAAGGCTAAAACATCCTGGG | -1.09
ACCTTTGGTCTTTGGTGAAACTCCACTACA | 0.744
GAATATTTATCAGATACAGGAGATCAGATG | -0.595
CGCCTTCATTCCTAGCCCCACCAAACTGAC | 3.71
AAAACTTGGACTCTATAGCCTATGCTTTGT | 0.709
GCAGTGAGGGTGGGTTCAAAGGTCAGAAAA | 7.95
ATTGATGGTTTTATCAGCTGAGGCCATTGC | 0.854
GCCTTATTATCTGCTTTTATGACCTTTGAC | 7.34
GACTCTTGGGCAGTCTAAAGTCTGATCCCA | 1.4
